# Assay results as given in PubChem BioAssay AID686979 (National Center for Advancing Translational Sciences (NCATS), 2013).
# The campaign covered roughly 420,000 compounds. About 50,000 (12%) were called active. Inconclusive means that the source gave no clear call. Such entries were picked first, then a sample of the others. Calls follow the shape of the dose curve; as a rule, active = well fitted inhibition curve with a large enough effect; inconclusive = small, poorly fitted or top-dose-only effect; inactive = flat fitted curve, though single readings scatter. Potencies of inconclusive entries are left out as doubtful fits.
# Test: qHTS for Inhibitors of human tyrosyl-DNA phosphodiesterase 1 (TDP1): qHTS in cells in presence of CPT; also: nearly all actives have a fitted effect of over 55% in size
# Conditions: chicken DT40 Tdp1-/-;hTDP1 cells + 20 nM CPT, ATP luminescence, 48 h; activity change, negative = growth inhibition: at 46.2 µM (top of the series) unless noted
# Method in brief: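 Chicken DT40 Tdp1-/- cells complemented with human TDP1, 400 cells/well, exposed to compounds plus 20 nM camptothecin for at least 48 h at 37 C; viability read as ATP content by CellTiter-Glo luminescence.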
# % is scaled to controls: 0 for no effect and ±100 for the full control effect; potency is read from the fitted curve at half-maximal effect; tags tell the direction and shape of the fitted curve.
SMILES,Potency,"activity change, negative = growth inhibition"
COc1cccc(-c2ccc(NC(=O)C3CCCN(Cc4cnc(C)s4)C3)cc2)c1 (centres undefined),"inconclusive [inhibitor, single point]",–
Cc1cc(C)c2ccccc2n1,inactive,–
CCCc1c(-c2cccc(F)c2)ncn1Cc1ccccc1OC,active: 9.2 µM,–
COc1ccc(CCNC(=O)c2n[nH]c3ccccc23)cc1,"inconclusive [inhibitor, single point]",–
COc1ccc(S(=O)(=O)Nc2ccc(N3CCOCC3)cc2)cc1Br,"inconclusive [inhibitor, single point]",–
CCC(C)(C)n1nnnc1C(c1cc2cc(OC)ccc2[nH]c1=O)N1CCc2ccccc21 (centres undefined),"inconclusive [inhibitor, single point]",–
CCC/C(=N\NC(=O)CCC(=O)NCc1ccccc1)c1ccccc1,"inconclusive [inhibitor, single point]",–
COc1cc(C=O)ccc1OCc1ccccc1Br,inactive,–
CCN(CC)S(=O)(=O)c1ccc(Cl)c(C(=O)Nc2ccc(Cl)cc2[N+](=O)[O-])c1,active: 5.8 µM,–
O=C(O)CCn1c(=O)c2cccn2c2cccnc21,inactive,–
O=C(NCC1Cc2cc(-c3cnc4ccccc4c3)cc(F)c2O1)c1cnsn1 (centres undefined),"inconclusive [inhibitor, single point]",–
OC(CNC1CCCC1)COc1ccc(-c2ccccc2)cc1 (centres undefined),"inconclusive [inhibitor, single point]",–
CCOCCn1c(SCc2c(F)cccc2Cl)nc2c1c(=O)[nH]c(=O)n2C,–,inconclusive: -34.8% [inhibitor]
NC(=O)c1cccc(Nc2nc(C(N)C3CCCCC3)cs2)n1 (centres undefined),"inconclusive [inhibitor, single point]",–
CCOC(=O)c1cc(-c2ccccc2)n(CCCC(=O)Nc2cccc(C)c2C)c1C,active: 16.4 µM,–
Cc1cccnc1NC(=O)c1ccc(Cl)c(S(=O)(=O)N2CCCC2)c1,inactive,–
CC(CNC(=O)CCc1nnc2ccc(N3CCC4(CC3)OCCO4)nn12)c1ccccc1 (centres undefined),inactive,–
CN(CC(=O)Nc1ccc(OC(F)(F)F)cc1)C(=O)Cc1c(Cl)cccc1Cl,inactive,–
COc1cccc(NC(=O)Nc2ccc3nc(C)c(C)nc3c2)c1,"inconclusive [inhibitor, partial curve]",–
N#Cc1ccccc1Cn1c(=O)n(-c2cccc(C(F)(F)F)c2)c(=O)c2sccc21,"inconclusive [inhibitor, single point]",–
C=C(C)Cn1c(NCCC)nc2c1c(=O)n(C)c(=O)n2C,"inconclusive [inhibitor, partial curve, poor fit]",–
COc1cccc(C(=O)Nc2ccc3c(C)cc(=O)oc3c2)c1,"inconclusive [inhibitor, single point]",–

SMILES,Potency,"activity change, negative = growth inhibition"
COC(CNC(=O)c1c[nH]c2ccc(S(=O)(=O)N(C)c3ccc(F)cc3)cc2c1=O)OC,"inconclusive [inhibitor, partial curve]",–
CCC1c2ccc(C)n2CCN1C(=O)Nc1ccccc1C(=O)OC (centres undefined),"inconclusive [inhibitor, single point]",–
CCN=c1scc(C)n1/N=C/c1cc(Br)c(O)c(Br)c1,"inconclusive [inhibitor, single point]",–
C=CCOC(=O)C1=C(C)OC(N)=C(C#N)C1c1ccco1 (centres undefined),"inconclusive [inhibitor, single point]",–
COCCCNC(=O)c1c(N)n(/N=C/c2cccs2)c2nc3ccccc3nc12,active: 18.4 µM,–
CCCCCCCCN1C(=O)[C@H](CC(=O)NCCCOCCCC)C[C@@]2(C(=O)OCC)CCCC=C12,active: 13 µM,–
COC(=O)c1ccc(/C=C2\SC(=S)N(CCCC(=O)NCCCN3CCOCC3)C2=O)cc1,"inconclusive [inhibitor, single point]",–
COc1ccc(CCN2C(=O)CC(N3CCOCC3)C2=O)cc1 (centres undefined),inactive,–
COc1ccc(OCc2nnc(SCC(=O)N3CCCc4ccccc43)n2-c2ccc(C)cc2)cc1,"inconclusive [inhibitor, single point]",–
CC1(C)CC(=O)C=C(c2ccc(COC(=O)C3CC3)cc2)C1=O,inactive,–
c1ccc(-c2oc3ncnc(NCCCN4CCOCC4)c3c2-c2ccccc2)cc1,"inconclusive [inhibitor, single point]",–
COc1ccc(C(=O)Oc2cccc(Nc3ncnc4ccccc34)c2)cc1OC,"inconclusive [inhibitor, single point]",–
C[C@H](CO)N1C[C@H](C)[C@H](CN(C)Cc2cccc(O)c2)OCc2ccccc2-c2c(n(C)c3ccccc23)C1=O,"inconclusive [inhibitor, single point]",–
CCNC(=S)Nc1ccc2c(c1)c(=O)n(C)n2Cc1ccc(Cl)cc1,"inconclusive [inhibitor, single point]",–
COC(=O)C1=C(C)N(c2cccc3ccccc23)C(=O)C1,"inconclusive [inhibitor, partial curve]",–
O=C(NCc1ccccc1Cl)C1CCCN(C(=O)Nc2ccc(F)cc2)C1 (centres undefined),"inconclusive [inhibitor, single point]",–
CN(CC(=O)Nc1ccc(Cl)c(C(F)(F)F)c1)C(=O)c1cc(-c2ccncc2)nc2ccccc12,"inconclusive [inhibitor, single point]",–
Cc1ccc(S(=O)(=O)N2CCCCC2)cc1NC(=O)CCCOc1ccccc1,"inconclusive [inhibitor, partial curve]",–
O=C(Nc1ccc(OC(F)(F)F)cc1)c1ccc2c(c1)no[n+]2[O-],active: 4.11 µM,–
CN(C)/C=N/c1c(C#N)cnn1-c1ncnc2sc(-c3ccccc3)cc12,active: 20.6 µM,–
CC(/C=C/c1ccccc1)=N\NC(=O)c1ccc(Br)cc1,"inconclusive [inhibitor, partial curve]",–
CCn1c(SCC(=O)N/N=C/C=C/c2ccco2)nc2ccccc21,"inconclusive [inhibitor, full curve, poor fit]",–
